Measurements as given in PubChem BioAssay AID1671193 (National Center for Advancing Translational Sciences (NCATS), 2021).
The whole screen tested about 150,000 compounds, of which about 180 (0.12%) were called active. Inconclusive means that the source gave no clear call. Such entries were picked first, then a sample of the others. The call rests on the fitted dose curve; in most records, active means well fitted cell-killing curve with a large enough effect; inconclusive means small, poorly fitted or top-dose-only effect, or effect the other way; inactive means flat fitted curve, though single readings scatter. A potency beside an inconclusive call is a rough fit, not a confirmed value.

Assay: GF-AFC viability counterscreen for inhibitors of alpha-synuclein gene (SNCA) expression; further: nearly all actives have a fitted effect of over 30% in size;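 on activity change, negative = cytotoxicity: 0% = DMSO-treated cells and -100% = medium-only wells without cells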
Conditions: HEK-293-SNCA-luc viability, GF-AFC fluorescence, 24 h; activity change, negative = cytotoxicity: at 57.1 µM (top of the series) unless noted
Method in brief: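 Cytotoxicity counterscreen: after 24 h compound treatment of genome-edited SNCA-luciferase HEK-293 cells, live-cell protease substrate GF-AFC read by fluorescence after 30 min; activity scaled between DMSO (0%) and medium-only (-100%), curves Hill-fitted.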
Potency means the concentration at half of the fitted maximal effect; tags describe the fitted curve by direction and shape.

Row | SMILES | activity change, negative = cytotoxicity | Potency
1 | CCOC(=O)c1ccc(N2C(=O)c3n[nH]c(-c4ccco4)c3C2c2cccc(OC)c2)cc1 (configuration not stated) | inactive: -27.9% | 
2 | CC(C)c1ccc(C2NC(=O)c3n[nH]c(-c4cccs4)c32)cc1 (configuration not stated) |  | inconclusive: 25.1 µM [cytotoxic, single point]
3 | CCC(C)C(=O)OC1CC(O)C23C4OCC5(C(O)CC2C1(C)C(O)O4)C3C(=O)CC1(C)C(c2ccoc2)CC2OC215 (configuration not stated) |  | inconclusive: 2.07 µM [cytotoxic, full curve, poor fit]
4 | COc1ccc(-n2nnnc2C2CCN(S(=O)(=O)c3ccc(NC(C)=O)cc3)CC2)cc1 |  | inconclusive: 1.41 µM [cytotoxic, full curve, poor fit]
5 | CCn1c(=N)c(C(=O)NCc2ccccc2)cc2c(=O)n3cccc(C)c3nc21 |  | inconclusive: 2.51 µM [rising, full curve, poor fit]
6 | O=C(Nc1ccc2nc(SCC(=O)N3CCOCC3)sc2c1)c1cccc(Br)c1 |  | inconclusive: 39.8 µM [cytotoxic, single point]
7 | COc1ccc(OC(=O)c2nc(SCc3ccccc3F)ncc2Cl)cc1 | inactive: 12.3% | 
8 | CCc1ccc(CSc2nc(-c3ccccc3F)nc3c2Cc2c(CO)cnc(C)c2O3)cc1 |  | inconclusive: 31.6 µM [cytotoxic, single point]
9 | O=c1cc(N2CCOCC2)oc2c(NCC3CCOCC3)nccc12 |  | inconclusive: 8.91 µM [cytotoxic, partial curve, poor fit]
10 | COCCn1c(C)cnc1CC1CCCN(Cc2ccc(F)c(F)c2)C1 (configuration not stated) |  | inconclusive: 25.1 µM [cytotoxic, single point]
11 | CCN(C(=O)C1CCN(S(=O)(=O)c2cc(Br)cc3c2N(C(C)=O)CC3)CC1)c1cccc(C)c1 |  | inconclusive: 0.316 µM [cytotoxic, full curve, poor fit]
12 | CCN1CCN(Cc2ccc(C(=O)Nc3ccc(C)c(Oc4ccc5c(c4)CC(=O)N5)c3)cc2C(F)(F)F)CC1 |  | inconclusive: 26.7 µM [cytotoxic, single point]
13 | CCCCN(CC)CCNC(=O)C1CCN(S(=O)(=O)c2cccc3nsnc23)CC1 |  | inconclusive: 0.178 µM [cytotoxic, full curve, poor fit]
14 | COC(=O)c1cc(OC)cc(OC)c1C(=O)c1c(OC)cc2c(c1O)C1CCC(O)C(C)(O2)O1 (configuration not stated) | inactive: -2.89% [at 23.9 µM] | 
15 | CCn1cc(C(=O)Nc2cccc(Cl)c2)c2cc(OC)c(OC)cc2c1=O |  | inconclusive: 25.1 µM [cytotoxic, single point]
16 | COCCNC(=O)C(NC(=O)c1ccccc1Cl)C1CCN(C(=O)c2ccc(OC)cc2)CC1 (configuration not stated) |  | inconclusive: 25.1 µM [cytotoxic, single point]
17 | COCCCn1c(=O)c(C(=O)N2CCN([S+](=O)([O-])c3cccc(OC)c3)CC2)nc2cccnc21 | inactive: 6.22% | 
18 | Cc1cccc(C)c1-c1cc(C(=O)NCCCc2ccccc2)c2cnn(C)c2n1 | inactive: 1.42% | 
19 | Cc1noc(-c2ccn3c(CNC(=O)c4ccoc4)nnc3c2)n1 | inactive: -6.93% | 
20 | N#Cc1cccc(C(=O)N2CCC(N3C[C@H](Oc4ccccc4)[C@@H]3c3ccncc3)CC2)c1 |  | inconclusive: 25.1 µM [cytotoxic, single point]
21 | COc1cccc(C(=O)NC2CCN(Cc3cccc(-c4cccc(C)c4)c3)CC2)c1 | inactive: -15.4% | 

Row | SMILES | activity change, negative = cytotoxicity | Potency
22 | COc1ccc(-c2c(C)c3ccc(O)c(CN4CCCC4)c3oc2=O)cc1OC |  | inconclusive: 22.4 µM [rising, partial curve, poor fit]
23 | Cc1cn2nc(C(=O)Nc3ccc(F)cc3C)cc2c(N2CCSCC2)n1 |  | inconclusive: 3.16 µM [cytotoxic, single point]
24 | CC(=O)NCCNc1cc(-c2ccccc2C(F)(F)F)ncn1 |  | inconclusive: 2 µM [cytotoxic, partial curve, poor fit]
25 | CCc1ccc(CNC(=O)C2CCCN(S(=O)(=O)c3ccc4c(ccn4C)c3)C2)cc1 (configuration not stated) | inactive: 4.22% | 
26 | Cc1nc(C2CC(O)C2)cc(N2CCN(c3nc4ccccc4s3)CC2)n1 (configuration not stated) |  | inconclusive: 39.8 µM [cytotoxic, single point]
27 | CCCCCn1c(CCNC(=O)c2cccc(C)c2)nc2ccccc21 |  | inconclusive: 39.8 µM [cytotoxic, single point]
28 | CCOc1ccc(Nc2oc(/C=C/c3cccc(OC)c3)nc2C#N)cc1 |  | inconclusive: 11.2 µM [rising, partial curve]
29 | COc1ccc(-c2nc3cnc(N4CCN(C)CC4)nc3n(CCC#N)c2=O)cc1 |  | inconclusive: 20 µM [rising, single point]
30 | CCN(CC)C(=O)Cn1c(=O)n(-c2ccccc2)c(=O)c2c3c(sc21)CCC3 |  | inconclusive: 7.94 µM [cytotoxic, single point]
31 | CN(C(=O)c1ccc2c(Cl)c3c(nc2c1)CCC3)c1ccccc1F |  | inconclusive: 25.1 µM [cytotoxic, single point]
32 | Cc1ccsc1CN1CCc2[nH]nc(C(=O)N3CCOCC3)c2C1 |  | inconclusive: 1.58 µM [rising, full curve, poor fit]
33 | CC1=Nc2cc(C(=O)N3CCC(C)CC3)ccc2Sc2ccc(Cl)cc21 |  | inconclusive: 1.78 µM [cytotoxic, partial curve, poor fit]
34 | CC[C@H]1CN(S(=O)(=O)c2ccc(OC)cc2)CC[C@H]1CC(=O)N(C)CC#N |  | inconclusive: 35.5 µM [cytotoxic, partial curve, poor fit]
35 | Cc1ccc(-c2cnc([C@@H]3COCCN3Cc3cn(C)c4ccccc34)[nH]2)cc1 | inactive: -16.2% [at 87.6 µM] | 
36 | CC1=C[C@@H](CNS(=O)(=O)c2ccc(C)cc2)[C@H](C(C)C)C[C@H]1CC(=O)N(C)Cc1cccnc1 |  | inconclusive: 25.1 µM [cytotoxic, single point]
37 | COc1ccc(-c2cc3ccc(O)c(CN4CCCC4)c3oc2=O)cc1 |  | inconclusive: 2 µM [rising, full curve, poor fit]
38 | CCOc1ccc(C(=O)Nc2ccc3nc(SCC(=O)N4CCc5ccccc54)sc3c2)cc1 |  | inconclusive: 7.08 µM [cytotoxic, single point]
39 | O=C(Cc1cccs1)NC1CCCc2c1[nH]c1c(Cl)cccc21 (configuration not stated) | inactive: -3.22% | 
40 | Cc1noc(-c2ccc(OC(F)(F)F)cc2)c1C(=O)NCc1cccc(Cl)c1 |  | inconclusive: 3.16 µM [cytotoxic, single point]
41 | COc1cccc(-c2noc(CC3CCN(C(=O)c4cc(Cl)ccc4F)CC3)n2)c1 |  | inconclusive: 31.6 µM [cytotoxic, single point]
42 | O=C(CCc1ccccc1)N1CCC(Cc2nc(-c3ccc(F)cc3)no2)CC1 | inactive: -8.3% | 

Row | SMILES | activity change, negative = cytotoxicity | Potency
43 | CCn1nc(-c2ccccc2SC)nc1N(C)C | inactive: 7.51% | 
44 | COc1cccc(-c2ccccc2NC(=O)C2CCN(c3nccnc3C)CC2)c1 |  | inconclusive: 39.8 µM [cytotoxic, single point]
45 | O=C(NCc1ccccc1)c1cccn1-c1nnc(N2CCCC2)s1 |  | inconclusive: 20 µM [cytotoxic, single point]
46 | CCNc1ncc2nc(-c3ccc(Cl)cc3)c(=O)n(Cc3cccs3)c2n1 |  | inconclusive: 31.6 µM [rising, partial curve, poor fit]
47 | Cc1csc(NC(=O)c2cnc3c(c2)N(C(=O)Cc2ccc(C(C)C)cc2)CCC3)n1 |  | inconclusive: 44.7 µM [cytotoxic, single point]
48 | CCN1C(=O)CCN(S(=O)(=O)CC)CC12CCOCC2 |  | inconclusive: 3.98 µM [rising, full curve]
49 | Cc1cc(Cl)ccc1S(=O)(=O)N1CCC(Oc2ccc(C(N)=O)cn2)CC1 |  | inconclusive: 25.1 µM [cytotoxic, partial curve, poor fit]
50 | CC1(COc2cccnc2)COc2ccc(C(=O)NCc3ccc(F)cc3)cc2N1 (configuration not stated) |  | inconclusive: 7.94 µM [cytotoxic, partial curve, poor fit]
51 | O=C(NC1CCN(c2cc(-c3ccc(F)cc3)[nH]n2)CC1)c1ccc2[nH]ccc2c1 | inactive: -25.8% | 
52 | O=C(COc1ccccc1)N(Cc1cccnc1)c1nc2c(F)cc(F)cc2s1 |  | inconclusive: 7.08 µM [cytotoxic, single point]
53 | CCC(=O)NC[C@H]1Cn2cc(-c3ccc(OC)cc3)nc2CO1 | inactive: 3.1% [at 87.6 µM] | 
54 | C/C1=C\[C@@H](C)C[C@@H](C)[C@@H](Cc2cnco2)OC(=O)/C(C)=C/[C@@H](C)C[C@@H](C)[C@@H](Cc2cnco2)OC1=O |  | inconclusive: 18.4 µM [cytotoxic, single point]
55 | COc1ccc(NC(=O)CSc2nc3ccccc3nc2N2CCOCC2)c(OC)c1 |  | inconclusive: 25.1 µM [cytotoxic, partial curve, poor fit]
56 | COc1ccc(C(=O)/C=C/c2cn(CC(O)CN3CCCCCC3)c3ccccc23)cc1OC (configuration not stated) |  | inconclusive: 17.8 µM [rising, partial curve]
57 | O=C(NCCc1ccccc1F)C1CCN(c2nccc(Nc3ccccc3F)n2)CC1 | inactive: -14.9% | 
58 | CC1CCN(C(=O)Cn2cc(SCC(=O)NCc3ccc(F)cc3)c3ccccc32)CC1 |  | inconclusive: 25.1 µM [cytotoxic, single point]
59 | CC1Oc2ccc(NC(=O)Cc3cccs3)cc2CN(Cc2ccc(Cl)cc2)C1=O (configuration not stated) |  | inconclusive: 39.8 µM [cytotoxic, single point]
60 | O=C(C[C@@H]1CCNC[C@@H]1Cc1cc(COc2ccccc2)on1)N1CCOCC1 | inactive: -2.31% [at 87.6 µM] | 
61 | COC(=O)CNC(=O)N1CCC2(CC1)N(Cc1ccccc1)C(=O)CS2(=O)=O |  | inconclusive: 5.62 µM [cytotoxic, full curve]
62 | Cc1cc(C)cc(-c2ccc(CN3CCCC(NC(=O)c4ccc(F)cc4)C3)cc2)c1 (configuration not stated) | inactive: -3.61% [at 12.5 µM] | 
